In PubChem BioAssay AID463173 (ICCB-Longwood Screening Facility, Harvard Medical School, 2010):
The whole screen tested about 52,000 compounds, of which about 4,300 (8.3%) were called active. Cut-off read from the data, not from the text of the source: active = survival mostly below about 52% (no sharp cut-off); inactive = mostly above about 56%. This is one part of the list.

test system: DeltatarO mutant; assay: growth inhibition of S. aureus wild type versus tarO mutant, primary screen, teichoic acid synthesis inhibitors, RN4220, OD600 (AID 463173); settings: OD600, 18 h, hits give low values, screened at 18.75 µg/mL (by protocol)

SMILES | survival
COc1cccc(N2CC(NC(=O)c3cccs3)CC2=O)c1 (centres undefined) | inactive: 74%
COc1cccc(CNC(=O)CCc2c(C)nn(-c3ccc(N4CCCC4)nn3)c2C)c1 | inactive: 88%
Cc1cc(Cl)ccc1NC(=O)C1CCCN(c2nnc(C)c3c(C)n(-c4ccccc4)nc23)C1 (centres undefined) | inactive: 75%
CC(C)c1ncc(C(O)c2cccc3ccccc23)n1C (centres undefined) | active: 56%
CC(CCc1ccccc1)NC(=O)CSc1n[nH]c(-c2ccccc2Cl)n1 (centres undefined) | inactive: 54%
Cc1cc(F)ccc1NC(=O)C1CCCN(C(=O)c2cnn(-c3ccccc3)c2-n2cccc2)C1 (centres undefined) | inactive: 63%
COc1ccc(OC(=O)c2cn(-c3cccc(OC)c3)c(=O)c3ccccc23)cc1 | inactive: 80%
O=S(=O)(NCC(c1ccco1)S(=O)(=O)c1cccs1)c1ccccc1 (centres undefined) | inactive: 101%
Cc1ccc(OC(C)C(=O)N2CCN(CCc3ccccn3)CC2)cc1C (centres undefined) | inactive: 66%
CCCCc1nc(Cl)c(C#N)c2c1COC(C)(C)C2 | inactive: 98%
COc1ccc(-c2oc3ncn4nc(COc5ccc(Cl)cc5)nc4c3c2-c2ccc(OC)cc2)cc1 | inactive: 87%
CCc1nnc2c(Nc3cc(OC)c(Cl)cc3OC)nc3ccccc3n12 | inactive: 86%
O=C(Nc1ccc2oc(-c3cccc4c(Br)cccc34)nc2c1)c1cccc(Cl)c1 | inactive: 119%
CCc1cccc(C)c1NC(=O)c1cc(CN2CCCC2)on1 | inactive: 87%
CC(C)NC(=O)C1CCCN(S(=O)(=O)c2ccc3c(ccn3C)c2)C1 (centres undefined) | inactive: 75%
Cc1ccc(OCCCC(=O)Nc2sc3c(c2C(N)=O)CCC(C)C3)cc1 (centres undefined) | inactive: 159%
COc1ccc(N(CC(=O)N2CCN(c3cccc(Cl)c3)CC2)S(=O)(=O)c2c(C)noc2C)cc1 | inactive: 77%
CC(NC(=O)CN1C2CCC1CC(=O)NC2)c1ccccc1 (centres undefined) | inactive: 111%
CCOCCCNC(=O)CN1C(=O)CCn2nc(-c3cccn3C)cc21 | inactive: 80%
COc1cc2[nH]c(=O)n(CCCC(=O)N(C)Cc3ccccc3)c(=O)c2cc1OC | inactive: 88%
CCOC(=O)c1ccc(N2C(=O)c3n[nH]c(C)c3C2c2ccc(CC)cc2)cc1 (centres undefined) | inactive: 78%
Cc1cc(=O)n(Cc2ccccc2)c(=O)n1Cc1ccccc1 | inactive: 89%
CCc1ccccc1NC(=O)Cn1nc(C)c2nn(-c3ccc(Cl)cc3)c(C)c2c1=O | inactive: 99%

SMILES | survival
CCc1ccc(S(=O)(=O)c2cn(C)c3ccc(C)cc3c2=O)cc1 | inactive: 96%
Cc1ccc(NC(=O)Cn2cc(S(=O)(=O)Cc3ccccc3)c3ccccc32)cc1C | inactive: 94%
COC(=O)c1cc2occc2n1Cc1nc(-c2ccc(Cl)cc2)oc1C | inactive: 100%
CC1CCCCC1NC(=O)CN1CCC(NC(=O)Nc2ccccc2)CC1 (centres undefined) | inactive: 89%
Cc1ccc(-n2nc(C(=O)N(C)c3ccccc3Cl)c3c4ccccc4n(C)c3c2=O)cc1 | inactive: 88%
Cc1cccn2c(=O)cc(COc3cccc(NC(=O)Nc4cccc(Cl)c4)c3)nc12 | inactive: 130%
CC(C)c1ccc(NC(=O)c2cc(S(=O)(=O)NCCc3ccccc3)ccc2F)cc1 | inactive: 63%
COc1ccc(-n2ccnc(NCCc3ccc(S(N)(=O)=O)cc3)c2=O)cc1Cl | inactive: 95%
O=C1Cc2cc(S(=O)(=O)Nc3cccc(C(F)(F)F)c3)cc3c2N1CCC3 | inactive: 64%
COc1ccc(C(C)C)cc1S(=O)(=O)NCCc1c(C)[nH]c2c(Cl)cccc12 | inactive: 82%
CN(C)S(=O)(=O)N(CC(=O)NCCSCc1ccc(Cl)cc1Cl)c1ccccc1 | active: 47%
CCOC(=O)C(Cc1ccccc1)NC(=O)Cn1nnc(-c2ccc(C)cc2)n1 (centres undefined) | inactive: 59%
CCOC(=O)C(CC)n1c(Br)nc2c1c(=O)[nH]c(=O)n2C (centres undefined) | inactive: 101%
COc1ccc(NC(=O)CN2C(=O)C(c3ccccc3)=NC23CCC(C)CC3)cc1Cl (centres undefined) | inactive: 73%
COc1ccc2[nH]c(=O)cc(C(=O)O)c2c1 | inactive: 104%
O=C(C(c1ccccc1)c1ccccc1)N1CCN(c2ccccn2)CC1 | inactive: 74%
CCn1nc(C)c(CCN(C)C(=O)Nc2cc(Cl)c(OC)cc2OC)c1C | inactive: 85%
CCN(Cc1ccccc1)C(=O)Cn1c(=O)cc(C)c2c(C)nn(-c3cccc(F)c3)c21 | inactive: 72%
O=C(CSc1oc(-c2ccc(F)cc2)nc1S(=O)(=O)c1ccccc1)c1ccc(Cl)cc1 | inactive: 55%
CC(C)c1nn2c(=O)cc(COC(=O)c3cccc(NC(=O)CCc4ccccc4)c3)nc2s1 | inactive: 94%
CCOc1ccc(-c2nnc(SCC(=O)NC3CCCCC3)nc2-c2ccc(OCC)c(OC)c2)cc1OC | inactive: 78%
CCc1ccc2occ(CC(=O)Nc3nnc(SC)s3)c2c1 | inactive: 76%
CC(C)c1ccc(NC(=O)C2CCC(CNS(=O)(=O)c3ccc4c(c3)CCCC(=O)N4)CC2)cc1 (centres undefined) | inactive: 73%

SMILES | survival
COc1ccc(CNC(=O)CCn2c(=O)c3cccn3c3ccc(F)cc32)cc1OC | inactive: 91%
CCN1C(=O)c2ccccc2S(=O)(=O)c2ccc(C(=O)NCc3ccc(C)cc3)cc21 | inactive: 61%
CC(C)c1ccc(NC(=O)[C@H]2O[C@@H]3OC(C)(C)O[C@@H]3[C@H]3OC(C)(C)O[C@H]32)cc1 | inactive: 91%
COc1ccc(-c2nc3cc(N=Cc4ccccc4O)ccc3o2)cc1 | inactive: 93%
CCN(CC)c1ccc2nc3c(=O)n(C)c(=O)n(C)c3nc2c1 | inactive: 64%
Cc1nn(CC(=O)N2CCN(c3ccccc3F)CC2)c(=O)c2cccn12 | inactive: 103%
CCc1cc2c(=O)c(-c3nc(C)cs3)c(CCC(=O)O)oc2cc1O | inactive: 62%
Cc1cc(OC(C)C(=O)N(Cc2ccco2)Cc2ccco2)cc(C)c1Cl (centres undefined) | active: 35%
Cn1c(CNc2cccc(C(F)(F)F)c2)n[nH]c1=S | inactive: 95%
CCC(C(=O)NCc1ccccc1Cl)n1c(=O)c2cccn2c2ccccc21 (centres undefined) | inactive: 47%
COC(=O)c1cc(OC)c(OC)cc1NC(=O)c1ccc2c(c1)CCN2S(C)(=O)=O | active: 37%
Cc1ccc2c(c1)N(C(=O)c1ccc(F)cc1)C(C)(C)CC2(C)c1ccccc1 (centres undefined) | active: 24%
O=C(NCc1ccccc1)c1c2c(nc3ccccc13)C(=O)N(C1CCCCC1)C2 | inactive: 69%
CCc1ccccc1N1C(=O)N(Cc2cc(=O)n3ccccc3n2)c2ccccc2S1(=O)=O | inactive: 84%
CCOC(=O)c1[nH]c(C)c(CCC(=O)N2CCN(c3ccc(Cl)cc3)CC2)c1C | inactive: 80%
CCS(=O)(=O)c1nc(S(=O)(=O)c2ccc(Cl)cc2)c(NCc2ccc(Cl)cc2)s1 | inactive: 70%
COc1ccc(-c2ccc(=O)n(CC(=O)Nc3ccc(Br)cc3F)n2)cc1 | inactive: 84%
Cn1c(=O)c2c(-c3ccccc3)n(-c3cccc(C#N)c3)cc2n(C)c1=O | inactive: 77%
CC1(C)NC(=O)N(CC(O)CN2C(=O)NC(C)(C)C2=O)C1=O | inactive: 93%
CCc1ccc2nc(N(Cc3cccnc3)C(=O)Cc3ccccc3)sc2c1 | inactive: 99%
COc1ccc(Cc2c(C)nn(-c3nc(C)c(C(=O)Nc4cccc(C(C)=O)c4)s3)c2C)cc1 | inactive: 71%
Cn1c(=O)c2c(-c3ccc(Cl)cc3)ccnc2n(C)c1=O | inactive: 53%
CC(C)(C)n1cnc2cc(N=Cc3ccccc3O)ccc21 | inactive: 81%

SMILES | survival
O=S(=O)(NCC(c1ccco1)N1CCN(c2ccc(F)cc2)CC1)c1cc(F)ccc1F (centres undefined) | inactive: 86%
COc1ccc(OC)c(CCNc2nc3cc(OC)c(OC)cc3c3nc(-c4cccnc4)nn23)c1 | inactive: 126%
COC(=O)c1ccc2c(c1)N(CC(=O)Nc1ccc(C)c(C)c1)C(=O)c1ccccc1S2 | inactive: 88%
CCS(=O)(=O)N1CCc2cc(C(=O)Nc3cc(C)cc(C)c3)ccc21 | inactive: 80%
Cc1ccc(C)c(N2CCN(C(=O)NCc3noc4ccccc34)CC2)c1 | inactive: 51%
COc1ccc2oc(=O)c(C(=O)NCc3ccco3)cc2c1 | inactive: 100%
Cc1cc2oc(C(=O)Nc3sc4c(c3C(=O)NCC3CCCO3)CCCC4)cc(=O)c2cc1C (centres undefined) | active: 47%
Cc1ccc2nc(Nc3cccc(C(F)(F)F)c3)c3nnnn3c2c1 | inactive: 89%
COc1ccc(N2CCN(C(=O)c3cn(C)c4ccc(S(=O)(=O)N5CCOCC5)cc4c3=O)CC2)cc1 | inactive: 85%
CCC1Oc2ccccc2N(CC(=O)NCc2ccccc2)C1=O (centres undefined) | active: -1%
Cc1cc(Nc2cccc(Cl)c2)nc2ccc(NC(=O)Cc3c(F)cccc3Cl)cc12 | inactive: 92%
Cn1c(=O)c(=O)n(C)c2cc(N3CCCC3)c(NC(=O)c3ccccc3Cl)cc21 | inactive: 90%
COc1ccc2nc(N(Cc3cccnc3)C(=O)c3ccc(Cl)cc3)sc2c1 | inactive: 89%
CCOc1ccccc1CNC(=O)CN1C(=O)c2cccnc2Oc2ccc(Cl)cc21 | inactive: 90%
Cn1cccc1C(=O)c1cccc(Br)c1 | inactive: 69%
COc1ccc(S(=O)(=O)N2CCCCC2)cc1C(=O)NC1CCS(=O)(=O)C1 (centres undefined) | inactive: 94%
Cc1ccc(C(=O)c2cn(Cc3ccccc3)c3c(F)cc(F)cc3c2=O)cc1 | inactive: 82%
O=C(Nc1ccccc1)c1ccc(Cl)c(S(=O)(=O)Nc2ccccc2)c1 | active: 43%
CCS(=O)(=O)N1CCC2(CC1)OC(=O)C(C)=C2C(=O)NCc1ccc(OC)c(OC)c1 | inactive: 89%
Cc1ccc(NC(=O)c2nc(S(C)(=O)=O)ncc2N(Cc2ccco2)Cc2ccco2)cc1 | inactive: 44%
